Some of the results follow. Rule as the data show it: active = 3.2 or more and inactive = the rest. Most of these values are background signal.
B1: CDH17_Y489_K486E (peptide)
chain: SSEILYHIIKG
B2: CDC73_Y293_YF (peptide)
chain: AAFNRYDQERF
B3: CDH23_Y2949_D2954N (peptide)
chain: AIIGIYILRDN
B4: CD59_Y87 (peptide)
chain: NELTYYCCKKD
B5: CCPG1_Y569_YF (peptide)
chain: TVFSDYLHPQF
B6: CDKL5_Y171_R175S (peptide)
chain: ANYTEYVATSW
B7: CDH23_Y2949_I2950N (peptide)
chain: AIIGIYNLRDD
B8: CDAN1_Y713 (peptide)
chain: PLLEYYRDIFT
B9: CDC5L_Y459 (peptide)
chain: DGMADYSDPSY
B10: CDA_Y79_V75I (peptide)
chain: AISEGYKDFRA
B11: CEP152_Y268_Q265P (peptide)
chain: ERPIRYLNHQL
B12: CCT6B_Y250 (peptide)
chain: NSGFFYKTAEE
B13: CEP120_Y884_Q879H (peptide)
chain: HMRLRYLAAEE
B14: CCDC93_Y176_R179C (peptide)
chain: DLSEVYKPCRK
B15: CFAP58_Y501 (peptide)
chain: SDRNLYSKNLV
B16: CDKN1B_Y74 (peptide)
chain: PLEGKYEWQEV
B17: CDH13_Y66 (peptide)
chain: NDKLRYEVSSP
B18: CDK13_Y351 (peptide)
chain: GGSSPYSRRLP
B19: CDK13_Y716_G714R_YF (peptide)
chain: IGERTYGQVFK
B20: CFAP45_Y289_E291G (peptide)
chain: EQMLEYMGQLQ
B21: CDH4_Y205 (peptide)
chain: DIPIRYSITGV
B22: CDK13_Y399 (peptide)
chain: RSRSPYSPVLR
B23: CDA_Y79 (peptide)
chain: AVSEGYKDFRA
B24: CD55_Y245_R240H (peptide)
chain: HDHYGYRQSVT
B25: CEFIP_Y1332 (peptide)
chain: ALAAPYVLYPG
B26: CDH13_Y66_R65C (peptide)
chain: NDKLCYEVSSP
B27: CDC5L_Y464_Y459C (peptide)
chain: CSDPSYVKQME
B28: CD5_Y465_Y465F (peptide)
chain: SHLSAFPALEG
B29: CDC73_Y290_R292K (peptide)
chain: PIPAAYNKYDQ
B30: CDC5L_Y464 (peptide)
chain: YSDPSYVKQME
B31: CDK2_Y19_YF (peptide)
chain: TFGVVYKARNK
B32: CFH_Y1008 (peptide)
chain: EKKDVYKAGEQ
B33: CDKL5_Y177_L182P (peptide)
chain: VATRWYRSPEP
B34: CD55_Y245_R240H_YF (peptide)
chain: HDHFGYRQSVT
B35: CFI_Y421_YF (peptide)
chain: IFHENYNAGTF
B36: CFAP45_Y289 (peptide)
chain: EQMLEYMEQLQ
B37: CCR5_Y339_Y339F (peptide)
chain: RASSVFTRSTG

What was measured:
Test in all cases: enrichment score (SH2-bound / input frequency) (ratio); bacterial display of known human phosphotyrosine sites (pTyr-Var adds point mutants) read by sequencing; higher = stronger binding; tyrosines were phosphorylated by kinases first
Conditions in all cases: peptide library: pTyr-Var
SHP2 C-SH2 domain E139D = target: SHP2 C-SH2 domain E139D
[1] = target: SHP2 C-SH2 domain wild-type
SHP2 N-SH2 domain L43F = target: SHP2 N-SH2 domain L43F
SHP2 N-SH2 domain T42A = target: SHP2 N-SH2 domain T42A
SHP2 N-SH2 domain T52S = target: SHP2 N-SH2 domain T52S
[2] = target: SHP2 N-SH2 domain wild-type
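Also: displayed peptides selected on beads carrying the immobilized SH2 domain, with library peptides lacking any tyrosine serving as negative controls.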

Binder	enrichment score (SHP2 C-SH2 domain E139D)	enrichment score [1]	enrichment score (SHP2 N-SH2 domain L43F)	enrichment score (SHP2 N-SH2 domain T42A)	enrichment score (SHP2 N-SH2 domain T52S)	enrichment score [2]
B1	inactive: 1.44	inactive: 1.26	inactive: 1.14	inactive: 1.11	inactive: 1.04	inactive: 1.14
B2	inactive: 0.824	inactive: 0.714	inactive: 0.85	inactive: 0.548	inactive: 0.882	inactive: 0.911
B3	inactive: 2.92	active: 3.36	inactive: 2.55	inactive: 2.64	inactive: 2.33	inactive: 2.87
B4	inactive: 0.864	inactive: 0.749	inactive: 0.811	inactive: 0.76	inactive: 0.716	inactive: 0.86
B5	inactive: 1.21	inactive: 0.88	inactive: 0.765	inactive: 1.59	inactive: 1.12	inactive: 0.79
B6	inactive: 0.968	inactive: 0.902	inactive: 0.924	inactive: 1.11	inactive: 0.986	inactive: 1
B7	inactive: 2.05	inactive: 2.12	inactive: 2.42	inactive: 1.98	inactive: 2.23	inactive: 2.06
B8	inactive: 1.69	inactive: 1.47	inactive: 1.27	inactive: 1.4	inactive: 1.3	inactive: 1.57
B9	inactive: 0.425	inactive: 0.488	inactive: 0.419	inactive: 0.473	inactive: 0.612	inactive: 0.468
B10	inactive: 0.604	inactive: 0.8	inactive: 0.798	inactive: 0.796	inactive: 0.867	inactive: 0.976
B11	inactive: 0.767	inactive: 0.717	inactive: 0.636	inactive: 1.1	inactive: 0.665	inactive: 0.692
B12	inactive: 0.847	inactive: 1.11	inactive: 1.08	inactive: 0.931	inactive: 0.817	inactive: 1.1
B13	inactive: 2.54	inactive: 2.22	inactive: 2.57	inactive: 1.9	inactive: 2.69	inactive: 2.26
B14	inactive: 0.609	inactive: 0.617	inactive: 0.612	inactive: 0.561	inactive: 0.707	inactive: 0.801
B15	inactive: 0.648	inactive: 0.667	inactive: 0.669	inactive: 0.653	inactive: 0.493	inactive: 0.69
B16	inactive: 1.01	inactive: 1.1	inactive: 1.31	inactive: 0.736	inactive: 1.47	inactive: 1.09
B17	inactive: 0.411	inactive: 0.604	inactive: 0.579	inactive: 0.411	inactive: 0.474	inactive: 0.482
B18	inactive: 0.247	inactive: 0.275	inactive: 0.278	inactive: 0.281	inactive: 0.282	inactive: 0.391
B19	inactive: 0.973	inactive: 0.913	inactive: 0.797	inactive: 0.71	inactive: 0.687	inactive: 1.07

Binder	enrichment score (SHP2 C-SH2 domain E139D)	enrichment score [1]	enrichment score (SHP2 N-SH2 domain L43F)	enrichment score (SHP2 N-SH2 domain T42A)	enrichment score (SHP2 N-SH2 domain T52S)	enrichment score [2]
B20	inactive: 0.773	inactive: 0.74	inactive: 0.863	inactive: 0.682	inactive: 0.778	inactive: 0.737
B21	inactive: 0.897	inactive: 0.816	inactive: 0.792	inactive: 0.808	inactive: 0.865	inactive: 0.873
B22	inactive: 0.387	inactive: 0.588	inactive: 0.425	inactive: 0.155	inactive: 0.289	inactive: 0.325
B23	inactive: 0.669	inactive: 0.849	inactive: 0.816	inactive: 0.591	inactive: 0.643	inactive: 0.779
B24	inactive: 1.68	inactive: 1.78	inactive: 1.83	inactive: 1.63	inactive: 1.87	inactive: 1.84
B25	inactive: 1.17	inactive: 0.865	inactive: 1.08	inactive: 0.78	inactive: 0.867	inactive: 0.952
B26	inactive: 0.737	inactive: 0.861	inactive: 0.644	inactive: 0.567	inactive: 0.463	inactive: 1.01
B27	inactive: 0.765	inactive: 0.896	inactive: 0.809	inactive: 0.725	inactive: 0.621	inactive: 1.18
B28	inactive: 0.758	inactive: 0.721	inactive: 0.614	inactive: 0.636	inactive: 0.721	inactive: 0.785
B29	inactive: 0.482	inactive: 0.827	inactive: 0.861	inactive: 1.58	inactive: 0.962	inactive: 0.903
B30	inactive: 0.399	inactive: 0.464	inactive: 0.427	inactive: 0.429	inactive: 0.564	inactive: 0.427
B31	inactive: 0.421	inactive: 0.505	inactive: 0.378	inactive: 0.384	inactive: 0.311	inactive: 0.363
B32	inactive: 0.454	inactive: 0.579	inactive: 0.482	inactive: 0.55	inactive: 0.525	inactive: 0.497
B33	inactive: 0.874	inactive: 0.632	inactive: 0.578	inactive: 0.672	inactive: 0.687	inactive: 0.639
B34	inactive: 2.14	inactive: 1.79	inactive: 2.03	inactive: 1.81	inactive: 2.03	inactive: 2.04
B35	inactive: 1.03	inactive: 0.893	inactive: 0.897	inactive: 0.734	inactive: 0.983	inactive: 0.798
B36	inactive: 0.683	inactive: 0.555	inactive: 0.579	inactive: 0.508	inactive: 0.591	inactive: 0.633
B37	inactive: 0.506	inactive: 0.446	inactive: 0.428	inactive: 0.432	inactive: 0.579	inactive: 0.46
